Measurements taken from paper PMC4336329 (PLoS ONE, 2015).
Screen size: about 310,000 compounds; about 2,200 (0.71%) showed an effect of 50% or more. Effects have a minus sign here. This is one part of the list.

molecular target: human ether-à-go-go-related gene (hERG) potassium channel (human, UniProt Q12809); test: primary screen, population patch clamp on CHO cells stably expressing hERG
Sequence (Q12809 whole entry, looked up): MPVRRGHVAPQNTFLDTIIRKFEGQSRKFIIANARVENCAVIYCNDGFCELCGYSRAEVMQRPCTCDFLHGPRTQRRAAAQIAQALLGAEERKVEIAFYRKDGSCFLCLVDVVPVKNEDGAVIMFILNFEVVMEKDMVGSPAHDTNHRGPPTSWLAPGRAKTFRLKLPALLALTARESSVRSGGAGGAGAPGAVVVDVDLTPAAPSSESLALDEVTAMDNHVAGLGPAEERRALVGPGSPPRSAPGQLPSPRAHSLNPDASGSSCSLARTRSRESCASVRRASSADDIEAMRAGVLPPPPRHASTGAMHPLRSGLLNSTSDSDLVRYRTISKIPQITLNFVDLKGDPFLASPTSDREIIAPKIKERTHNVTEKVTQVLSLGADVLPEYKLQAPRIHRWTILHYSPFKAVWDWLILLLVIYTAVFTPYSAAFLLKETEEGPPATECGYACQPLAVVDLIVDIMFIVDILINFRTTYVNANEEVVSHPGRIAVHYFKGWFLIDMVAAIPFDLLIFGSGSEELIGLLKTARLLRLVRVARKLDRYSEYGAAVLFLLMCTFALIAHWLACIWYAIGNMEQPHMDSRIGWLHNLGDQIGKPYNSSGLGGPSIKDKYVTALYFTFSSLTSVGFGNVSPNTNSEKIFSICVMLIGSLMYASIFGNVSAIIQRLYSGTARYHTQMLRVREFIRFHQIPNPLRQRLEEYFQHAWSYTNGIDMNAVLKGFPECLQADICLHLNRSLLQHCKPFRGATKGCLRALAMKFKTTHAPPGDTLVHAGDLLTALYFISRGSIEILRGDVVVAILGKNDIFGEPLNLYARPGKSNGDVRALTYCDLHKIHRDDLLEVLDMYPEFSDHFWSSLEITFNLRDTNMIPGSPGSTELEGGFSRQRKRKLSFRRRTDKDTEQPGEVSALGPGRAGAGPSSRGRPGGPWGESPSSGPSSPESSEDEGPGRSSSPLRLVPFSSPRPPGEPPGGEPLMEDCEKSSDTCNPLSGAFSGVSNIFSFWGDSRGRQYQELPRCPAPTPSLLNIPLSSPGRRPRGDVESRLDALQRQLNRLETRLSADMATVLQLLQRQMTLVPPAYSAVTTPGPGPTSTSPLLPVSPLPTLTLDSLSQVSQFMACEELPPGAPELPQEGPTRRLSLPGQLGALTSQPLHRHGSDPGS

Compound | hERG current change (%, negative = inhibition) at 1uM [%]
C/C(=N\NS(=O)(=O)c1ccc(C)c([N+](=O)[O-])c1)c1ccc2c(c1)OCO2 | 12.8
Cc1ccc(Oc2ccc(Cl)cc2NC(=O)c2cnccn2)cc1 | 4.49
CC(=O)N1CCCc2cc(S(=O)(=O)N3CCCC(C(=O)NCc4ccccc4Cl)C3)ccc21 (centres unmarked) | 11.7
CCOc1ccccc1C(=O)OCC(=O)NCC1CCCO1 (centres unmarked) | 13.1
COc1ccccc1/C=C(\NC(=O)c1cccc(C)c1)C(=O)Nc1ccccn1 | 11.1
COCCCN(C(=O)Nc1ccc(C)c(C)c1)C(C)c1ccccn1 (centres unmarked) | 13.4
Cc1ccc(NC(=O)CSCc2ccc(F)cc2)cc1 | 5.43
Cc1noc(/C=C/N(C)C)c1S(=O)(=O)N1CCCC(C(=O)N2CCCCC2)C1 (centres unmarked) | 13.5
COc1cccc(N2CCN(c3ccc4nnc(CCC(=O)Nc5ccc(C)cn5)n4n3)CC2)c1 | -23.1
N#CC1(NC(=O)COc2ccc(S(=O)(=O)N3CCCC3)cc2[N+](=O)[O-])CCCCC1 | 2.94
CC(C)CNC(=O)C(=O)NCC1OCCN1S(=O)(=O)c1cccs1 (centres unmarked) | 10.1
Cc1c(C(=O)/C=C/N(C)C)nnn1-c1ccc(Cl)cc1C#N | 15.6
O=[N+]([O-])c1ccc(C(O)CN2CCN(C/C=C/c3ccccc3)CC2)cc1 (centres unmarked) | -85.5
COc1ccc(CNC(=S)Nc2ccc3nc(N4CCN(C)CC4)cc(C)c3c2)cc1 | -4.78
CN(C)CCC=C1c2ccccc2C=Cc2ccccc21.Cl | 2.92
COc1ccc(Cl)cc1N(CC(=O)NCCSCc1ccccc1)S(C)(=O)=O | 4.46
Cc1ccc(OCCn2c(C)c(/C=N/n3cnnc3)c3ccccc32)cc1 | 9.47
Cc1oc(-c2ccc(Cl)cc2)cc1C(=O)/C(C#N)=C/Nc1ccccc1 | 11.8
O=C(NCc1ccc(F)cc1)C1CC(=O)N(C2CCCC2)C1 (centres unmarked) | 14.7

Compound | hERG current change (%, negative = inhibition) at 1uM [%]
Cc1ccccc1Cn1c(C)cc(C)c(C#N)c1=O | 9.17
Cc1nnc(SC(C)C(=O)NC2CCCCC2C)s1 (centres unmarked) | 9.42
C/C(=C\c1ccccc1)C(=O)N1CCN(Cc2ccc3c(c2)OCO3)CC1 | -3.77
Cc1ccc(/C=N/NC(=O)Cc2ccc(Cl)cc2)s1 | 6.18
Cc1ccc(-c2nnc(-n3nc(C)cc3C)c3ccccc23)cc1 | 15.1
COc1cc2c(cc1OC)C(=O)N(C)CC2 | 1.89
CCC(C)NC(=S)NNC(=O)c1ccncc1 (centres unmarked) | 13.9
Cc1nnc2ccc(-c3cccc(NC(=O)c4ccco4)c3)nn12 | 1.54
O=c1nc(SCc2ccc(Cl)cc2)nc(-c2ccccc2)[nH]1 | 14.5
CCC(=O)N1c2ccc(S(=O)(=O)CCC(=O)NCCC3=CCCCC3)cc2CC1C (centres unmarked) | 3.75
COc1ccccc1C(=O)NCC(=O)NNc1ncnc(N)c1[N+](=O)[O-] | 12.2
CC(Oc1cc2oc(=O)c3c(c2cc1Cl)CCC3)C(=O)NCCN1CCOCC1 (centres unmarked) | 10.2
CC(=O)c1c(N2CCOCC2)[nH]c(-c2ccccc2)nc1=S | 16.3
Cc1ccc(NCC(=O)N/N=C/c2ccc(C(=O)O)cc2)cc1 | 14.3
O=C(O)C1CC=CCC1C(=O)Nc1ccc2c(c1)OCCO2 (centres unmarked) | 7
CCC1(c2ccccc2)NC(=O)N(CC(=O)Nc2ccccc2N2CCCCC2)C1=O (centres unmarked) | -4.28
Cn1nc(C(=O)Nc2nc3ccccc3[nH]2)c2ccccc2c1=O | 11.5
O=C(NC1CCCC1)C(c1cccnc1)N(CCc1ccccc1)C(=O)c1ccco1 (centres unmarked) | -16.7
O=C(O)c1cccc(Nc2cc(Cl)c3nonc3c2[N+](=O)[O-])c1 | 6.49

Compound | hERG current change (%, negative = inhibition) at 1uM [%]
COc1ccccc1OCCn1cc(/C=C(\C#N)C(=O)NCc2cccs2)c2ccccc21 | 9.73
C=CCn1c(=NC(=O)c2cc(-c3cccs3)nc3ccccc23)sc2cc(S(N)(=O)=O)ccc21 | 13.9
CCN1C(=O)/C(=C2\C=Cc3ccccc3N2CC)OC1=S | 12.5
CCCn1nnnc1NC(=O)COc1ccc(Cl)c(C)c1 | 7.15
O=C(Nc1cccc(O)c1)c1noc2c1CCc1ccccc1-2 | -6.34
CCc1nccn1CCC(=O)N1CCCC(N2CCN(c3ccccc3F)CC2)C1 (centres unmarked) | 9.56
O=C(CCC(=O)N1CCN(c2ccccn2)CC1)Nc1nnc(C(F)(F)F)s1 | 1.38
CC1CN(S(=O)(=O)c2cccc(C(=O)N(Cc3nnc(-c4ccccc4Cl)o3)C3CC3)c2)CC(C)O1 (centres unmarked) | 2.09
Cc1ccc(NC(=O)CSc2nc3c(c(=O)n(C)c(=O)n3C)n2C)cc1 | -2.58
COc1ccc(NC(C)C(=O)N/N=C/c2ccccc2OCc2cccc(Br)c2)cc1 (centres unmarked) | 9.78
C/C=C/Cn1c(SCc2ccc(Cl)cc2)nc2c1c(=O)[nH]c(=O)n2C | 0.817
Cc1cnc(C(=O)Oc2cccc(Cl)c2Cl)cn1 | 13.4
Cc1noc(C)c1COc1ccccc1C(=O)N1CCN(S(=O)(=O)c2ccccc2F)CC1 | 4.27
O=C(Nc1ccc(S(=O)(=O)NCC2CCCO2)cc1)c1cccc(F)c1 (centres unmarked) | 13.7
CCOC(=O)c1sc(=S)n(-c2ccc(OC)cc2)c1N | 12.7
c1ccc(-c2cc3c(N4CCCC4)ncnc3s2)cc1 | -4.18
COc1ccc(C)cc1NS(=O)(=O)c1cn(C)nc1C | 4.68
CCCC1CCC(C2=N/C(=C\c3ccc(OC)c(OC)c3)C(=O)O2)CC1 (centres unmarked) | -5.6
